Where two headings read alike, the source gives them in different places. No constants are given. Whether binding was seen depends on the method and setting. For some of these results: In cells and extracts the contact can be indirect. Some entries that bind do so weakly or less than the wild type. For some of these results: Where a sequence is shown, tags or fusion partners need not be part of it.
What was measured:
[1] = target: T1, GST-MLL3_(PHD2/3) D372K/D400K (human) (UniProt Q8NEZ4); assay: pull-down; about 9 μg GST-MLL3 PHD2/3 or GST-MLL4 PHD2/3 (WT or mutants) on GSH resin, incubated 3 h at 4 °C with lysate of HEK293FT cells expressing Myc-ASXL1, Myc-ASXL2 or Myc-ASXL2ΔMBH; 5 washes; western blot; only the target purified
T1 sequence: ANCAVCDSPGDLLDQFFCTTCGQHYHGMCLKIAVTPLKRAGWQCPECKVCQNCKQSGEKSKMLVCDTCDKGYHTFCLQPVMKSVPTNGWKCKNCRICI

The chains behind the UniProt entries cited, without tags or fusion partners. Where a name states a change or a piece, a line headed by the entry shows the natural chain unless it says otherwise. A line that says so, or that is headed by a name, gives the form on record, which may keep a tag or linker. Residues count along the entry.
PHD2 and PHD3 fingers of human MLL4 (aa 227-324) (O14686, residues 227-324): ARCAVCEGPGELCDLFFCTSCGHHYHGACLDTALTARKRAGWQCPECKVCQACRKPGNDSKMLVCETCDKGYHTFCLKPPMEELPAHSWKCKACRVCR
MLL4_(PHD2/3) D257K/D285K (O14686, form named): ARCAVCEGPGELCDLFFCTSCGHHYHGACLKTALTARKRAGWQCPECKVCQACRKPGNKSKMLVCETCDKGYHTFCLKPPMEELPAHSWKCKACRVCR
MLL4_(PHD2/3) K274E (O14686, form named): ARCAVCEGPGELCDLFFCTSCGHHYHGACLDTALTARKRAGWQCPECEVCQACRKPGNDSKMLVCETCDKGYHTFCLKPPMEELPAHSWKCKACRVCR
MLL4_(PHD2/3) V290K (O14686, form named): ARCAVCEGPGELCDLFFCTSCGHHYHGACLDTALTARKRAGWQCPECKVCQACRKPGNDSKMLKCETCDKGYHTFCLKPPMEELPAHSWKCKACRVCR

[2] = target: T2, GST-MLL3_(PHD2/3), wild type (human) (UniProt Q8NEZ4); assay: as above
T2 sequence: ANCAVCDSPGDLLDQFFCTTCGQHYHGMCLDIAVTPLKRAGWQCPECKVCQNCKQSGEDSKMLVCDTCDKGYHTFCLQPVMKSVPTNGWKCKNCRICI

[3] = target: GST-MLL4_(PHD2/3), wild type (human) (UniProt O14686); assay: as above
[4] = target: PHD2 and PHD3 fingers of human MLL4 (aa 227-324) (human) (UniProt O14686); assay: NMR titration; 1H,15N HSQC of 0.1 mM uniformly 15N-labelled WT or mutated MLL4 PHD2/3, MLL3 PHD2/3 or MLL3 PHD4; peptides or MLL3 PHD2/3 added stepwise; 298 K; 20 mM Tris pH 6.8, 150 mM NaCl, 3 mM DTT, 7% D2O; both purified
[5] = target: T3, MLL3_(PHD2/3) D372K/D400K (human) (UniProt Q8NEZ4); assay: as above
T3 sequence: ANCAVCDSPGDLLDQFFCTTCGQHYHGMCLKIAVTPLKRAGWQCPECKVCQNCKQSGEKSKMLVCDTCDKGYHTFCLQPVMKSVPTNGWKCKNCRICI

[6] = target: MLL4_(PHD2/3) D257K/D285K (human) (UniProt O14686); assay: as above
[7] = target: MLL4_(PHD2/3) K274E (human) (UniProt O14686); assay: as above
[8] = target: MLL4_(PHD2/3) V290K (human) (UniProt O14686); assay: as above
[9] = target: T4, PHD4 finger of MLL3 (aa 464-520) (human) (UniProt Q8NEZ4); assay: as above
T4 sequence: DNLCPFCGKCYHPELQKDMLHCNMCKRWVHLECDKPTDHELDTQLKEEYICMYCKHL

[10] = target: T4, PHD4 finger of MLL3 (aa 464-520) (human); assay: as above; remark: listed apart in the source

With “Myc-ASXL2, full length (from UniProt Q76L83 1-1435)” the binding [1] was “no binding”, the binding [2] was “binds” and the binding [3] was “binds”.

“ASXL2 peptide (aa 650-670) K661E (from UniProt Q76L83 650-670)” was tested, and the binding [4] was “no binding”.

B1: ASXL2 peptide (residues 650-670 of ASXL2) (peptide, UniProt Q76L83 650-670, looked up)
peptide: NRTGARTLADIKAKAQLVKAQ
notes: also called ASXL2 (aa 650-670); MBH of ASXL2; source: synthetic peptide (SynPeptide)
With B1 the binding [5] was “no binding”, the binding [6] was “no binding” and the binding [7] was “no binding”. The binding [8] was “no binding” and the binding [9] was “no binding”.

B2: PHD2 and PHD3 fingers of human MLL3 (aa 342-439) (domain or fragment, UniProt Q8NEZ4 342-439)
chain: ANCAVCDSPGDLLDQFFCTTCGQHYHGMCLDIAVTPLKRAGWQCPECKVCQNCKQSGEDSKMLVCDTCDKGYHTFCLQPVMKSVPTNGWKCKNCRICI
For B2, the binding [10] was “no binding”.

From PMC11161652, “ASXLs binding to the PHD2/3 fingers of MLL4 provides a mechanism for the recruitment of BAP1 to active enhancers” (Nature Communications, 2024)
